According to article PMC4336329 (PLoS ONE, 2015):
Hit rate of the full screen: of about 310,000 compounds, about 2,200 (0.71%) showed an effect of 50% or more. Effects have a minus sign here. The list shows a part of the results.

The compounds below were run against human ether-à-go-go-related gene (hERG) potassium channel (human, UniProt Q12809) (assay: primary screen, population patch clamp on CHO cells stably expressing hERG).
human ether-à-go-go-related gene (hERG) potassium channel, sequence (Q12809 whole entry, looked up): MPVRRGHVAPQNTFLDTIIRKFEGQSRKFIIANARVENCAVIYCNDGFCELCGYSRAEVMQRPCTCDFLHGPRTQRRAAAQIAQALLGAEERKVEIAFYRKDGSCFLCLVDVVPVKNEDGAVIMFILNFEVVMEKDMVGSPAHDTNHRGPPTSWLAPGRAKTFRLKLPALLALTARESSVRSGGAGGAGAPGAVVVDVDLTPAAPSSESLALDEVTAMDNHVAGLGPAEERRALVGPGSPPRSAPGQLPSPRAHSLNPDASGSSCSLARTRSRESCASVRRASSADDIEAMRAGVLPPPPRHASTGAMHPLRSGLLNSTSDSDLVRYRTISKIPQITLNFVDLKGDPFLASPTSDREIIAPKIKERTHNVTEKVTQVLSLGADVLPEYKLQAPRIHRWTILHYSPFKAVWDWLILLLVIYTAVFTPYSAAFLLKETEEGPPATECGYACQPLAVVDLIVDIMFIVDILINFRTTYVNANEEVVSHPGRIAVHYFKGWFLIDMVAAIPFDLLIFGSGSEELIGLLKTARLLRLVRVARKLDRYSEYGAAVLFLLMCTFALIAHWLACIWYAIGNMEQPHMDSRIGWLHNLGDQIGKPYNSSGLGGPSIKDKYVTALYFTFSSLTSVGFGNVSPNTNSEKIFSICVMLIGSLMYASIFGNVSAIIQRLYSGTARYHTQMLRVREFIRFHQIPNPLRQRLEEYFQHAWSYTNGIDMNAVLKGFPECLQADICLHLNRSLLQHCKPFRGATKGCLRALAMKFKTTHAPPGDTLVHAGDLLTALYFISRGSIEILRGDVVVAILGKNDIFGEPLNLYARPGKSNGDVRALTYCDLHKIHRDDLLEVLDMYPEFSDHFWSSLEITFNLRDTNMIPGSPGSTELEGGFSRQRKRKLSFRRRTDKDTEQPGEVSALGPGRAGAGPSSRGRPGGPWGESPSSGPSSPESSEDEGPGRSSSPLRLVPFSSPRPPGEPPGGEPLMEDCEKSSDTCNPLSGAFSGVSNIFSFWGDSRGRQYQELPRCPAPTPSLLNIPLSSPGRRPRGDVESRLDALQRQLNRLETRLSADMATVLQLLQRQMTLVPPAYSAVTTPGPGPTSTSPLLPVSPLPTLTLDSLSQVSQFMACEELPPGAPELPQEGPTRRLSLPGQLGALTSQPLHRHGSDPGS

| SMILES | hERG current change (%, negative = inhibition) at 1uM [%] |
| --- | --- |
| COc1ccc(/C=C/C(=O)NCCCN2CCCC2)cc1 | -4.15 |
| COc1ccccc1NC(=S)NCc1ccc(S(N)(=O)=O)cc1 | 6.8 |
| O=C(NCc1nnc(SCC(=O)N2CCCC2)o1)c1ccco1 | -7.61 |
| CSc1nc2nc3c(cn2n1)C(=O)CC(c1ccccc1)C3 (stereo not shown) | 13.2 |
| CC(=O)Oc1ccc(/C=N/NS(=O)(=O)c2ccccc2)cc1 | 9.84 |
| CNC(=O)c1cc(S(=O)(=O)NCc2ccncc2)ccc1OC | 3.18 |
| C[N+](C)(CCCCCC[N+](C)(C)CCCN1C(=O)c2cccc3cccc(c23)C1=O)CCCN1C(=O)c2cccc3cccc(c23)C1=O.[Br-] | 15.5 |
| CNc1nc(NCc2ccccc2)nc(N)c1[N+](=O)[O-] | 8.04 |
| CCCn1nnnc1-c1cccc(Cl)c1 | -5.05 |
| CCCNC(=O)c1ccc2c(=O)n3c(-c4ccc(C)cc4)csc3nc2c1 | 3.09 |
| Cc1cccc(OCc2nnc(SCC(=O)Nc3ccc(N4CCOCC4)cc3)o2)c1 | 13 |
| Cc1ccccc1OCCNc1cc(N2CCNCC2)ccc1[N+](=O)[O-] | 17.5 |
| Cc1cc(C)c(C(N)=O)c(NC(=O)Nc2ccccc2)n1 | 4.56 |
| CSc1ccc(S(=O)(=O)NCCSc2ccccn2)cc1 | 7.96 |
| CC(C)n1c(=O)[nH][nH]c1=S | 9.94 |
| Cc1ccc(/C=C2\SC(=S)N(CCC(=O)Nc3cccnc3)C2=O)cc1 | 11.5 |
| COc1ccc(S(=O)(=O)N2CCC(C(=O)Nc3cccc(C(C)=O)c3)CC2)cc1 | -2.68 |
| CCOC(=O)c1ccc(NC(=O)N2CCCCCC2)cc1 | 3.19 |
| CC(C)CN1CCN(Cc2cn(C)c3ccccc23)CC1CCO (stereo not shown) | 9.98 |
| CCCc1nc2c(c(=O)c3ccccc3n2C)c(=O)n1-c1cc(C)cc(C)c1 | 5.88 |
| C=C(C)Cn1c(C)cc(C)c(S(=O)(=O)c2ccc(C)cc2)c1=O | 9.47 |
| COc1cc(OC)cc(C(=O)Nc2ccccc2C(=O)NC2CC2)c1 | 16.9 |
| COc1ccc(S(=O)(=O)Cc2ccc(C(=O)NC3CCCCCC3)o2)cc1 | 21.7 |

| SMILES | hERG current change (%, negative = inhibition) at 1uM [%] |
| --- | --- |
| O=C(NCc1ccccc1)N(Cc1cc2cc3c(cc2[nH]c1=O)OCO3)CC1CCCO1 (stereo not shown) | 11.5 |
| COc1cccc(-c2ccc(C#N)c(=O)[nH]2)c1 | 9.87 |
| CC(C)c1nnc(NC(=O)CCC(=O)N2CCN(C3CCCCC3)CC2)s1 | 6.31 |
| COC(=O)C1CCN(CC(=O)Nc2ccc(OC)c(Cl)c2)CC1 | 9.01 |
| Cn1nccc1C(=O)OCC(=O)Nc1ccc(S(N)(=O)=O)cc1 | 21.2 |
| CCCc1cc(C(=O)NC(C)C2CCCO2)cs1 (stereo not shown) | 5.72 |
| Cc1nc(-c2cccc(S(=O)(=O)N3CCC(C)CC3)c2)cs1 | 17.4 |
| COc1ccc(NC(=S)N2CCC(Cc3ccccc3)CC2)cc1OC | -4.14 |
| COc1ccc([C@@H]2[C@@H]3C(=O)N(C(C)(C)C)C(=O)[C@@H]3[C@]3(Cc4ccc(Cl)cc4)C(=O)N(c4cccc(F)c4)C(=O)N23)cc1 | 10.2 |
| O=C(CC1Sc2ccccc2NC1=O)NCc1ccc(Cl)cc1 (stereo not shown) | 17.3 |
| C(=N\N(c1ccccc1)c1ccccc1)/c1ccc2c(c1)OCO2 | 11.2 |
| N/C(Cc1nc(-c2ccc(Cl)cc2)cs1)=N/O | 9.97 |
| CCOc1ccc(N(CC(=O)NCc2ccc(F)cc2)C(=O)c2ccco2)cc1 | -5.88 |
| CC1CCN(CC(=O)Nc2ccc(Br)cc2[N+](=O)[O-])CC1 | 11.7 |
| COc1cccc(C2C(C#N)=C(N)Oc3c2oc(CO)cc3=O)c1 (stereo not shown) | 14.1 |
| CC(NC(=O)Nc1ccccc1)c1ccccc1 (stereo not shown) | -0.139 |
| CC(C)NC(=O)COC(=O)c1ccc(Cl)c(S(=O)(=O)N2CCCC2)c1 | 4.1 |
| Cc1ncc([N+](=O)[O-])n1CCOC(=O)Nc1ccc([N+](=O)[O-])cc1 | 10.8 |
| Cc1ccc(NC(=O)CNC(C)c2ccccc2)cc1.Cl (stereo not shown) | 11 |
| COc1ccc2nc3oc(C(=O)N4CC(C)CC(C)C4)cc3cc2c1 (stereo not shown) | 13.2 |
| CN(Cc1nc2ccc(F)cc2[nH]1)Cc1nc(CC2CC2)no1 | 6.9 |
| Cc1ccc(CN2CCC(c3nc4ccc(Cl)cc4[nH]3)CC2)cc1 | -91.8 |
| C/C(CC(=O)Nc1ccc2c(c1)OCCO2)=N\NC(=O)c1ccc([N+](=O)[O-])cc1Cl | 14 |

| SMILES | hERG current change (%, negative = inhibition) at 1uM [%] |
| --- | --- |
| O=C(c1ccco1)N1CCN(C(=O)c2cc(-c3ccc(F)cc3)no2)CC1 | -18.9 |
| O=C(Nc1c(C(=O)N2CCCCC2)cnn1-c1ccccc1)c1ccco1 | 14 |
| CC1(C)CC(=O)C(C(C#Cc2ccccc2)C2=C(O)CC(C)(C)CC2=O)=C(O)C1 | 10.9 |
| Cc1ccc(NC(=O)CSc2nnc(Cc3csc(C)n3)o2)c(C)c1 | 18.2 |
| O=C(NCC(O)c1ccccc1)c1ccc(Cl)c(S(=O)(=O)N2CCCC2)c1 (stereo not shown) | 5.35 |
| CCOC(=O)CN1C(=O)S/C(=C\c2ccc3c(c2)OCO3)C1=O | 9.64 |
| O=C(CSc1ccccn1)N1CCOCC1 | 7.13 |
| CC(C)(O)C#Cc1ccc(C(=O)NCCC(=O)O)s1 | 18 |
| O=C(NNC(=S)Nc1ccccc1)c1cccs1 | 8.82 |
| O=C(N/N=C1\C2CN3CCN(C2)CC1(c1ccccc1)C3)Nc1ccccc1 | 1.37 |
| Cc1ccc(N2CC(C(=O)N3CCN(C(=O)c4ccco4)CC3)CC2=O)cc1 (stereo not shown) | -45.8 |
| CC(NC(=O)CCC(=O)c1ccccc1)c1ccc(F)cc1 (stereo not shown) | -8.55 |
| Cc1ccccc1NC(=O)CSc1nnc(NC(=O)C2CC2)s1 | 10.8 |
| CCOC(=O)c1cc2cc(F)ccc2nc1C | 8.26 |
| O=Cc1cn(CCC(=O)O)nc1-c1cccc2ccccc12 | 11.3 |
| N=C1C(c2ccccc2)=C(O)CN1Cc1ccco1 | 3.36 |
| O=[N+]([O-])c1cc([N+](=O)[O-])c2n[nH]c(-c3ccccc3)c2c1 | 13.5 |
| O=C(c1ccc(C(=O)N2CCOCC2)nc1)N1CCOCC1 | 15.9 |
| Cc1ccc(OCCn2cc(/C=C(\C#N)C(=O)NCC3CCCO3)c3ccccc32)cc1 (stereo not shown) | 7.74 |
| COc1cccc(/C(C)=N/NS(=O)(=O)c2ccc(Cl)cc2)c1 | 7.71 |
| COc1ccc2cc(/C=N/NC(=O)CSCc3ccc([N+](=O)[O-])cc3)c(Cl)nc2c1 | 10.9 |
| Cc1cccnc1NC(=O)C1CCN(S(=O)(=O)c2cccs2)CC1 | 11.7 |
| C=CCSc1nc2ccccc2n1S(=O)(=O)c1ccc(C)cc1 | 15.9 |

| SMILES | hERG current change (%, negative = inhibition) at 1uM [%] |
| --- | --- |
| CNc1nc(Nc2ccc(C)c(Cl)c2)nc(N)c1[N+](=O)[O-] | 6.53 |
| C=CC1=C2C=C(C3CC3)N(CC3CC3)C=C2C(=O)C(C)(OC(=O)c2ccco2)C1=O (stereo not shown) | 2.58 |
| CC(=O)Nc1cc2c(cc1C(C)=O)OCCO2 | 8.39 |
| COc1ccc(NC(=O)Cn2c(=O)sc3ccccc32)c(OC)c1 | 9.15 |
| COc1ccccc1/C=C/C(=O)N1CCc2cc(OC)c(OC)cc2C1C (stereo not shown) | 13.2 |
| Cc1cccc(NC(=O)c2ccc(F)c(S(=O)(=O)NCc3ccco3)c2)c1 | -11.9 |
| Cl.NC(=O)c1[nH]cnc1N | 13.1 |
| CCS(=O)(=O)Nc1ccc(C(=O)c2ccccc2)cc1 | -2.91 |
| O=C(O)CCCCCN1C(=O)CCC1=O | 12.2 |
| CN(C(=O)COc1coc(CN2CCN(c3ccccc3)CC2)cc1=O)c1ccccc1 | -2 |
| c1ccc(COCCCn2cc(-c3ccccc3)nn2)cc1 | 7.34 |
| Cc1cc(Oc2ccc(=O)n(C)n2)nc(SCCOc2ccccc2)n1 | 14.2 |
| Cc1cc(C(=O)CSc2nnnn2C)c(C)n1Cc1ccco1 | 22 |
| CC(C)(C)c1ccc(S(=O)(=O)N2CC(C(=O)O)Oc3ccc(Cl)cc32)cc1 (stereo not shown) | 9.68 |
| COc1cc(C(=O)NCc2nnc(SCC(=O)c3ccc(Cl)cc3)o2)cc(OC)c1OC | 11.5 |
| CCOc1ccc(CC(=O)NCC2(N3CCCCC3)CCCCC2)cc1 | 1.57 |
| Cc1ccc(S(=O)(=O)N(C)CC(=O)OCC(=O)c2c(N)n(C)c(=O)n(C)c2=O)cc1 | -3.67 |
| COc1ccccc1C(=O)NNC(=O)c1ccccc1Br | 21 |
| CC(=O)c1ccc(N2CCN(C(=O)c3cc(-c4ccc5c(c4)OCO5)nc4ccccc34)CC2)cc1 | 13.1 |
| CCOc1ccc(-c2cccc(NC(=O)COc3ccc(Cl)cc3)c2)nn1 | 7.7 |
| CC(O)CNc1nc2c(c(=O)n(C)c(=O)n2C)n1Cc1cccc(C(F)(F)F)c1 (stereo not shown) | 1.17 |
| COc1ccc(C2/C=C\CN(S(=O)(=O)/C=C/c3ccccc3)CC(=O)N2Cc2ccc(F)cc2)cc1 (stereo not shown) | 8.33 |
